The list shows a part of the results.
system: PfAP2-HC AP2 domain (GST-tagged); assay: gcPBM binding intensity (ln(normalized median fluorescence intensity)); higher = stronger DNA binding
Outline: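 DNA-binding domains from P. falciparum, fused to GST and produced in E. coli, were put on an Agilent 4 × 180k double-stranded probe array for 1 h in 1× PBS holding 1% milk, 0.2 mg/ml BSA, 0.5% salmon testes DNA and 0.03% Triton X-100. Probes were primer-extended, 36 bp long and drawn from intergenic genomic regions, with negative controls included. After Alexa488 anti-GST antibody detection and a 488 nm scan, binding intensity was set as the highest Masliner-normalised natural-log median intensity across replicate spots of either probe orientation.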

Row | Sequence | gcPBM binding intensity (ln)
1 | ATGTCTATATATTAAGGTACACATATATGCTATTCA [XGTACX_site6008] | 9.77
2 | TTTTAGTTAATTCATGCATGTAAAGTTTTATTTATA [TGCATGCA_site252] | 9.66
3 | AAAAAAAAAAAAAAAGTACACACTTTTGCGTACATG [CACACA_site3097] | 9.69
4 | ATATTAATTTTTATTACACACTCTCAATTTTTATTT [CACACA_site58] | 9.78
5 | AAAATATACATAAACACACACAAAACGTTTAAGAAA [CACACA_site1071] | 10.3
6 | GTTTAACTGTTTTATACACACAATGTATCCAATAAA [CACACA_site5612] | 9.85
7 | TTATTTTATTTTGAAGCATGCTTTTTGCTGTGATAA [TGCATGCA_site278] | 9.29
8 | AAATAATATTTATACACACACACATATTTATATACA [CACACA_site6403] | 10.3
9 | TTATGCGTTTGCAAAAGTACATATCTATTATTTTTA [XGTACX_site7609] | 9.5
10 | TATAAAAATATTTAATGTACGAATCTGTGATATATC [XGTACX_site7881] | 9.5
11 | CTAAACAGAATTATCACACATATAAATATAAACATA [CACACA_site4560] | 9.68
12 | ATATATTACATATGTGTGCACGTTCCAAAATTTTTA | 9.91
13 | ATTATTAAAAGAAGAAGTACTTATATATTAATATTA [XGTACX_site5227] | 9.59
14 | TTTTCATGTTGTAAAGCATGCTTTACTCATAAAAAA [TGCATGCA_site917] | 9.1
15 | AAAATACACGCATACACACACACACGCGCACATATA [CACACA_site6448] | 10.6
16 | GGTCTTATTTTTAGTAGTACAAATATAATATACATA [XGTACX_site6483] | 9.59
17 | TTTTTTTTTTTTTGTTGTACCCATCATATATACATA [XGTACX_site4342] | 9.58
18 | TTTTTTGTTTGAATGGTGCATTTTGTAATTATATTT | 9.75
19 | ATAATATCATAATATTGTACATATTTTATTTTAAAT [XGTACX_site1115] | 9.5
20 | CAACTAACATATATTCAACACACATATACCTTCAAC [CACACA_site8988] | 9.96
21 | TTAAAATAGATATTAGTGCAAAAAAAAAAAAATAAA | 9.64
22 | TTTTTAATTAACTTTTTATAAATAAATAAAAATATA [GTGCAC_negctrl_site334] | 9.07
23 | AAAAGAAAATTAAATTAACACACATAAATATATATA [CACACA_site8482] | 9.85

Row | Sequence | gcPBM binding intensity (ln)
24 | TTCACATACAGAAACACACACATATTTATAAATTAA [CACACA_site7699] | 10.5
25 | ATTATTTAATTTTATTAAAAAAAAACAAATTAACAG [GTGCAC_negctrl_site152] | 9.44
26 | TAACATATTATATATACATGCATACGTGAACTAATC [TGCATGCA_site888] | 9.72
27 | ATTGTATATGTATATGCACACAATATATGTACTTAT [CACACA_site2611] | 9.97
28 | GATATATTATTTGAATGTACATATTATATTTATATT [XGTACX_site907] | 9.79
29 | GTTAGAATTGTTAGGTGGTCAAAAAGGAGAAAAAAA [XGTACX_site2086] | 9.56
30 | TTTTTTTAGTTAATTAAACACACAAAAAAAAAAATA [CACACA_site9301] | 9.4
31 | AAAAAAATAAAAAGGAACGTCTATAGTTAATTTATT [CACACA_negctrl_site919] | 9.87
32 | AATCGATTGGATAATATTTTTTCTCTTAATTTTTTG [GTGCAC_negctrl_site165] | 9.44
33 | TATATTAGAAGAAATTCACACATTCATGTAATCTTA [CACACA_site4706] | 9.52
34 | ATGTTGCACAATGTTACACACACAATATATATCGTT [CACACA_site4833] | 10.3
35 | TATTATTTTTCCTAATGTACAAAATATATATTTTTA [XGTACX_site2727] | 9.39
36 | TTCTTATATAAATACACACACAAAATATCTACAATG [CACACA_site4568] | 10.5
37 | TTTGAATATATAAATATGCACACTTCTATTATAAAT [CACACA_site3359] | 9.63
38 | TACTTACAGATAATAACACACAAGAAAAAAATAAAA [CACACA_site4716] | 10
39 | TACAAATATGGACACACACACATATTTATATTTATA [CACACA_site6420] | 11
40 | AAAAAACAGACATACACACACACACGGATATTTATA [CACACA_site7570] | 11.4
41 | ATATAAATGTATATGACACACATATATATATATATA [CACACA_site889] | 10
42 | AATATTTATGGGTGCACACAAACATACAGATATATA [CACACA_site5810] | 9.92
43 | TATATATATATCAAGTGTACTTGTGTTTGTAATATT [XGTACX_site8854] | 9.74
44 | TTTTTTTTGTTGTTGTTGCACTTGATAGGAATGGCT [GTGCAC_site9701] | 9.59
45 | AAAAAAAACAGACACACACACAAATACATACACAAA [CACACA_site705] | 10.5
46 | CCATTTACAAAAAGGAGTACACAAATATATGTTTAA [XGTACX_site649] | 9.51

Row | Sequence | gcPBM binding intensity (ln)
47 | AAAATAAATAAATACACACACACGAATATATATATA [CACACA_site1683] | 10.8
48 | TTTTAAAAATAATAAATAAATAAAATTGAAGTTCCA [CACACA_negctrl_site305] | 9.43
49 | TATATTTATTTATATACACACACTTGTATAAAAAAT [CACACA_site2036] | 9.92
50 | TTAAATATTTTTAGAGTGCATGTAATAAAAATATAA [GTGCAC_site9414] | 9.51
51 | TATATCAAAATACATACACACATTTGTATATACATT [CACACA_site2696] | 10
52 | TATATACAGAAACACACACACACATATATATATATA [CACACA_site2247] | 10.2
53 | TATCTATATGGGAACACACTCATAAATATATATCTA [CACACA_site4815] | 9.72
54 | TATATATATATATTTACACACATTCATATAAATTCA [CACACA_site3532] | 9.66
55 | GCCTACAGACTTAGTAGTACATGAGAAGATATATAT [XGTACX_site2269] | 9.48
56 | AATATGAACGGACACACACACACAAAAAAAAAAAAA [CACACA_site5154] | 10.6
57 | AAAATTTTTAAATATTGTACTATTTATTTTTAGCAT [XGTACX_site6190] | 9.56
58 | AGGAAAAACTTGAATGCATGCGCACATTCTAGTTTG [TGCATGCA_site776] | 9.63
59 | TATTATTACGTAATATGTACATATATTTATACCACT [XGTACX_site5918] | 9.74
60 | AAAAAAAAAAAAAAATGTACAAAAATTACTATAAAA [XGTACX_site7683] | 9.48
61 | TTTTTTTTTGTTTACACACACAAAATATTATATGTA [CACACA_site2470] | 10.1
62 | AAAAATATATATAACACACACATAATATATATATAT [CACACA_site2537] | 10.2
63 | TTATAACACATTACATGTACAAATATAAATATATTC [XGTACX_site6503] | 9.54
64 | ATAACGATATATGTGCGTACTTATAGAATAAGCAAA [XGTACX_site6743] | 9.74
65 | AAAATTATATATTATTGTACATAAAATTTTGACATA [XGTACX_site4886] | 9.44
66 | ATATATCATATTATAGTGCATTTATAATAATATTAT | 9.55
67 | TATTATCTGTAGTGTACACATATTATATAGTACTTT [CACACA_site4582] | 9.8
68 | TATTTTTTTTTTATATGTACATAATTTCAAATAAAT [XGTACX_site7747] | 9.45
69 | AAGGATATAACATACACACACACACCGATATATATA [CACACA_site6136] | 10.6

Row | Sequence | gcPBM binding intensity (ln)
70 | TTTATTTATCTGTATACACACTTTAATGAAAAGTTG [CACACA_site5400] | 9.64
71 | ACAAATCTAAGATAGTGTACATTTATATATATATAT [XGTACX_site8740] | 9.87
72 | TATATATATATATAAGTGCATATAAAAATCGTTCGT | 9.81
73 | ATATATATATAATAAACACACACATATACATATATG [CACACA_site9145] | 10.5
74 | ATTTTTTTTTTTTTTTTTTTTTTTTGGAGAAAGAGA [CACACA_negctrl_site1119] | 8.98
75 | AATATAAATAAAAACACACACACACCCATATATATA [CACACA_site2267] | 11.3
76 | TTTATATACACACAGAAGAACAGAAATATTATATAT [TGCATGCA_negctrl_site483] | 9.86
77 | ATATATATATATATATGTACATATATGTATACCTTA [XGTACX_site6791] | 9.78
78 | ATAAATACTAGGCACACACACATATATATATATATA [CACACA_site2080] | 10.4
79 | CAATAGTTCTTATGGGTGCAAACCACATATATATAA [GTGCAC_site9606] | 9.54
80 | TATTTATTTTTCTGTTGTACTTTTCAACATGTTACA [XGTACX_site7457] | 9.64
81 | TCTACATATTAATTATGTACGAATTATTATTAGTAA [XGTACX_site6924] | 9.45
82 | TAAATGGGTGTTAATGCACACGATATGTCTATATAT [CACACA_site5321] | 9.8
83 | TATTTATGTTCATATAAACACACGTAAAATTCAAGG [CACACA_site1538] | 9.62
84 | GTCCCTATAAGGGGAACACACATAAATGGATATATA [CACACA_site6612] | 9.58
85 | CATATTCATAAAAGTTGTACATGCAATTTTTTTTTT [XGTACX_site2261] | 9.6
86 | TCAATAAAAAAAAACGCACACACAAATATATTCCAT [CACACA_site1223] | 11
87 | AAAAATCAATTAGAAGAACACACGTAAATTTTTTTT [CACACA_site2396] | 9.76
88 | TATTAATAAAACCGTTGTACTACATACATAAATATT [XGTACX_site5578] | 9.61
89 | CATTATATGATTTATGTGCACATTCATTTATTTTAA | 9.8
90 | ATACTATATATATAAGTGCATGTTCATTATACCTAA | 9.54

Source: the supplement of paper PMC11417369
